{"source": "patent US10456339B2", "about": "“Organic hydroperoxide reduction in perfumery raw materials” (FIRMENICH SA, priority 2017, dated 2019)", "key": {"[1]": {"experiment": "Reduction of POV in model perfume using AKG-HEI", "details": "1.0% w/v", "experimental": "The mixed citrus oil was loaded into the solvent at approximately 16.7% v/v (40 mL oil into 200 mL solvent, 240 mL total perfume). Approximately 150 mg (1.0% w/v) of the AKG-HEI salt was dissolved in 15 mL of the mixed citrus perfume, and POV measurements were taken as a function of time after the addition. An untreated perfume sample was handled similarly to the treated perfume and also tested, because the POV can rise rapidly with handling of the sample (opening the bottle, agitation, etc.)."}, "[2]": {"experiment": "POV of model perfume treated with AKG-mono(DiMeC12A)", "details": "1.0% w/v", "experimental": "A model perfume was made using 90/10 v/v ethanol/water as a solvent, and a mixture of orange, grapefruit, and bergamot oils as the perfume oil. The mixed citrus oil was loaded into the solvent at approximately 19.4% v/v (6 mL oil into 25 mL solvent). Approximately 200 mg (1.0% w/v) of the AKG-monoMeC12A salt was dissolved in 20 mL of the mixed citrus perfume, and POV measurements were taken as a function of time after the addition. An untreated perfume sample was handled similarly to the treated perfume and also tested, because the POV can rise rapidly with handling of the sample (opening the bottle, agitation, etc.)."}, "[3]": {"experiment": "POV of model perfume treated with AKG-DiMeC12A salt", "details": "2.0% w/v", "experimental": "A model perfume was made using 90/10 v/v ethanol/water as a solvent, and a mixture of orange, grapefruit, and bergamot oils as the perfume oil. The mixed citrus oil was loaded into the solvent at approximately 19.4% v/v (6 mL oil into 25 mL solvent). […] An untreated perfume sample was handled similarly to the treated perfume and also tested, because the POV can rise rapidly with handling of the sample (opening the bottle, agitation, etc.)."}, "[4]": {"experiment": "POV of mixed citrus oil treated with AKG-DiMeC12A salt", "details": "1.0% w/v", "text": "In addition to the treatment done in a model perfume as described above, a similar experiment was done in mixed citrus oil. A sample of mixed citrus oil was made by combining lime, orange, grapefruit, lemon, mandarin, tangerine, and bergamot oils, so that a variety of terpene hydroperoxides would be present in the treated mixture being tested. […] An untreated mixed citrus oil sample was handled similarly to the treated oil and also tested, because the POV can rise rapidly with handling of the sample (opening the bottle, agitation, etc.)."}, "[5]": {"experiment": "Reduction of POV in model perfume using oxaloacetic acid", "details": "0.83% w/v; […] (24 hours); indistinguishable from blank"}, "[6]": {"experiment": "Reduction of POV in model perfume using PhPA-DiMeC10A", "details": "[…] w/v", "experimental": "The mixed citrus oil was loaded into the solvent at approximately 16.7% v/v (40 mL oil into 200 mL solvent, 240 mL total perfume). Approximately 164 mg (1.1% w/v) of the PhPA-DiMeC10A salt was dissolved in 15 mL of the mixed citrus perfume, and POV measurements were taken as a function of time after the addition. An untreated perfume sample was handled similarly to the treated perfume and also tested, because the POV can rise rapidly with handling of the sample (opening the bottle, agitation, etc.)."}, "[7]": {"experiment": "Reduction of POV in model perfume using α-ketoglutaric acid", "details": "1.2% w/v; 0.0 min (start value)"}}}
{"molecule": "O=C(O)CCC(=O)C(=O)O.O=C1NCCN1CCO.O=C1NCCN1CCO", "note": "[AKG-HEI]", "values": [{"measurement": "POV of Treated Perfume", "setting": "[1]; 1 day", "result": 1.12, "unit": "mmol/L"}, {"measurement": "POV of Treated Perfume", "setting": "[1]; 2 days", "result": 0.72, "unit": "mmol/L"}, {"measurement": "POV of Treated Perfume", "setting": "[1]; 4 days", "result": 0.70, "unit": "mmol/L"}, {"measurement": "POV of Treated Perfume", "setting": "[1]; 7 days", "result": 0.56, "unit": "mmol/L"}]}
{"molecule": "CCCCCCCCCCCCN(C)C.O=C(O)CCC(=O)C(=O)O", "note": "[AKG-mono(DiMeC12A)]", "values": [{"measurement": "POV of Treated Perfume", "setting": "[2]; 0.0 min (start value)", "result": 11.99, "unit": "mmol/L"}, {"measurement": "POV of Treated Perfume", "setting": "[2]; 30 min (0.5 h)", "result": 7.01, "unit": "mmol/L"}, {"measurement": "POV of Treated Perfume", "setting": "[2]; 45 min (0.75 h)", "result": 6.97, "unit": "mmol/L"}, {"measurement": "POV of Treated Perfume", "setting": "[2]; 60 min (1.0 h)", "result": 7.02, "unit": "mmol/L"}, {"measurement": "POV of Treated Perfume", "setting": "[2]; 180 min (3.0 h)", "result": 4.89, "unit": "mmol/L"}, {"measurement": "POV of Treated Perfume", "setting": "[2]; 210 min (3.5 h)", "result": 4.54, "unit": "mmol/L"}, {"measurement": "POV of Treated Perfume", "setting": "[2]; 240 min (4.0 h)", "result": 3.78, "unit": "mmol/L"}, {"measurement": "POV of Treated Perfume", "setting": "[2]; 270 min (4.5 h)", "result": 3.77, "unit": "mmol/L"}, {"measurement": "POV of Treated Perfume", "setting": "[2]; 300 min (5.0 h)", "result": 3.05, "unit": "mmol/L"}, {"measurement": "POV of Treated Perfume", "setting": "[2]; 340 min (5.67 h)", "result": 2.52, "unit": "mmol/L"}, {"measurement": "POV of Treated Perfume", "setting": "[2]; 1560 min (26 hours), indistinguishable from blank", "result": 0.0, "unit": "indistinguishable mmol/L"}, {"measurement": "POV of Treated Perfume", "setting": "[2]; […] (24 hours)", "result": 0.76, "unit": "mmol/L"}, {"measurement": "POV of Treated Perfume", "setting": "[2]; […] (24.5 hours)", "result": 0.67, "unit": "mmol/L"}]}
{"molecule": "CCCCCCCCCCCCN(C)C.CCCCCCCCCCCCN(C)C.O=C(O)CCC(=O)C(=O)O", "note": "[AKG-DiMeC12A]", "values": [{"measurement": "POV of Treated Perfume", "setting": "[3]; 0.0 min (start value)", "result": 12.74, "unit": "mmol/L"}, {"measurement": "POV of Treated Perfume", "setting": "[3]; 35 min", "result": 8.31, "unit": "mmol/L"}, {"measurement": "POV of Treated Perfume", "setting": "[3]; 45 min", "result": 8.35, "unit": "mmol/L"}, {"measurement": "POV of Treated Perfume", "setting": "[3]; 70 min", "result": 6.77, "unit": "mmol/L"}, {"measurement": "POV of Treated Perfume", "setting": "[3]; 130 min", "result": 6.54, "unit": "mmol/L"}, {"measurement": "POV of Treated Perfume", "setting": "[3]; 145 min", "result": 5.82, "unit": "mmol/L"}, {"measurement": "POV of Treated Perfume", "setting": "[3]; 180 min", "result": 4.89, "unit": "mmol/L"}, {"measurement": "POV of Treated Perfume", "setting": "[3]; 210 min", "result": 4.51, "unit": "mmol/L"}, {"measurement": "POV of Treated Perfume", "setting": "[3]; 240 min (4 hours)", "result": 4.15, "unit": "mmol/L"}, {"measurement": "POV of Treated Perfume", "setting": "[3]; 270 min", "result": 3.49, "unit": "mmol/L"}, {"measurement": "POV of Treated Perfume", "setting": "[3]; 4320 min (3 days, 72 hours), indistinguishable from blank", "result": 0.0, "unit": "indistinguishable mmol/L"}, {"measurement": "POV of Treated Perfume", "setting": "[4]; 0.0 min (start value)", "result": 9.53, "unit": "mmol/L"}, {"measurement": "POV of Treated Perfume", "setting": "[4]; 90 min", "result": 3.32, "unit": "mmol/L"}, {"measurement": "POV of Treated Perfume", "setting": "[4]; 95 min", "result": 2.32, "unit": "mmol/L"}, {"measurement": "POV of Treated Perfume", "setting": "[4]; 105 min", "result": 2.63, "unit": "mmol/L"}, {"measurement": "POV of Treated Perfume", "setting": "[4]; 130 min", "result": 2.68, "unit": "mmol/L"}, {"measurement": "POV of Treated Perfume", "setting": "[4]; 150 min (2.5 hours)", "result": 2.28, "unit": "mmol/L"}, {"measurement": "POV of Treated Perfume", "setting": "[4]; 250 min", "result": 1.81, "unit": "mmol/L"}, {"measurement": "POV of Treated Perfume", "setting": "[4]; 260 min", "result": 1.41, "unit": "mmol/L"}, {"measurement": "POV of Treated Perfume", "setting": "[4]; 4320 min (3 days, 72 hours)", "result": 1.50, "unit": "mmol/L"}]}
{"molecule": "O=C(O)CC(=O)C(=O)O", "note": "[oxaloacetic acid]", "values": [{"measurement": "POV of Treated Perfume", "setting": "[5]", "result": 0.0, "unit": "indistinguishable mmol/L"}]}
{"molecule": "CCCCCCCCCCN(C)C.O=C(O)C(=O)Cc1ccccc1", "note": "[DiMeC10A-PhPA]", "values": [{"measurement": "POV of Treated Perfume", "setting": "[6]; 0.0 (start value)", "result": 9.44, "unit": "mmol/L"}, {"measurement": "POV of Treated Perfume", "setting": "[6]; 0.5 hours", "result": 5.7, "unit": "mmol/L"}, {"measurement": "POV of Treated Perfume", "setting": "[6]; 4 hours", "result": 4.58, "unit": "mmol/L"}, {"measurement": "POV of Treated Perfume", "setting": "[6]; 1 day", "result": 3.1, "unit": "mmol/L"}, {"measurement": "POV of Treated Perfume", "setting": "[6]; 2 days", "result": 2.38, "unit": "mmol/L"}, {"measurement": "POV of Treated Perfume", "setting": "[6]; 4 days", "result": 1.98, "unit": "mmol/L"}, {"measurement": "POV of Treated Perfume", "setting": "[6]; 7 days", "result": 1.33, "unit": "mmol/L"}]}
{"molecule": "O=C(O)CCC(=O)C(=O)O", "note": "[α-ketoglutaric acid]", "values": [{"measurement": "POV of Treated Perfume", "setting": "[7]", "result": 11.99, "unit": "mmol/L"}]}
